According to paper PMC6919601, “Identification of Plasmodium dipeptidyl aminopeptidase allosteric inhibitors by high throughput screening” (PLoS ONE, 2019):
The whole screen tested about 110,000 compounds, of which about 230 (0.21%) showed an effect of 50% or more. The list shows a part of the results.

Target: DPAP1 (Plasmodium falciparum, UniProt Q8IIJ9)
Experiment: primary screen, percent inhibition; read by cleavage of a fluorogenic dipeptide substrate; higher = more effect of the substance
Design: species or system P. falciparum D10 trophozoite lysates; single well
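Further: 30 min substrate incubation versus DMSO and 10 µM JCP410 controls.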

DPAP1, sequence (Q8IIJ9 whole entry, looked up): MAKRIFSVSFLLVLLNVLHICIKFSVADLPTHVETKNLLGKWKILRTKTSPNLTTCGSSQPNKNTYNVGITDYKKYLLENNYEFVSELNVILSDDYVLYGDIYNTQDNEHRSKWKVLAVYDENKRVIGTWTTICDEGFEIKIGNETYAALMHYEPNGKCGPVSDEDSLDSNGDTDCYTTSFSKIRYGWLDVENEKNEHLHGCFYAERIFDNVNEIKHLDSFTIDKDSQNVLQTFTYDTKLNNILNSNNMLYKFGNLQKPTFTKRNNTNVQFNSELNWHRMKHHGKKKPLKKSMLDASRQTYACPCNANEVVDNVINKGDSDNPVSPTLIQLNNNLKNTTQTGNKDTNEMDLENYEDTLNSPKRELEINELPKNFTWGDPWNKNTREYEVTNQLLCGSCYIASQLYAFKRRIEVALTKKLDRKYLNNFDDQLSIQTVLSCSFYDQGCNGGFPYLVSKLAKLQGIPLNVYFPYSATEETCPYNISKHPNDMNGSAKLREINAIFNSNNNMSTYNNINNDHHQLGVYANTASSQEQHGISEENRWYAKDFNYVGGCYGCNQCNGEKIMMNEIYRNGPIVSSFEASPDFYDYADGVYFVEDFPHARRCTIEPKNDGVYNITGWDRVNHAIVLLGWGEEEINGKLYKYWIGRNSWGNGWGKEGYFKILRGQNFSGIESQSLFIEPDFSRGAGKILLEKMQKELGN

Compound | % Inhibition @ 10 uM [%]
Cc1cc(NS(=O)(=O)c2ccc(NC(=O)COc3ccc(C(C)C)c(C)c3)cc2)no1 | 6.73
COC(=O)c1cccc(NC(=O)c2ccccc2OC)c1 | -6.44
CCOc1ccc2nc(N3CCC(C(=O)N4CCN(C)CC4)CC3)sc2c1 | -0.0745
CCOC(=O)c1cc(C)n(CC2CCC(C(=O)NCCC3=CCCCC3)CC2)c1C (centres unmarked) | -0.943
C=CCSc1nc(O)c2c(n1)NC(=O)CC2c1ccc(O)c(OCC)c1 (centres unmarked) | -1.11
CCc1ccc(C(=O)CSc2nc3ccccc3c(=O)n2C)cc1 | 5.39
CSc1ccc(CN2CCC(C(N)=O)CC2)cc1 | -2.95
Nc1nnc(Sc2c(O)nc3ccc(Cl)cc3c2-c2ccccc2)s1 | 9.14
CCCSc1ncc(Cl)c(C(=O)Nc2cccnc2)n1 | 5.29
COCCNC(=O)C1CCN(S(=O)(=O)c2c(C)noc2/C=C/c2cccs2)CC1 | -3.32
CN(C)c1ccc(C(NS(=O)(=O)c2ccccc2)(C(F)(F)F)C(F)(F)F)cc1 | 7.25
Cc1ccc2c(=O)c(C(=O)c3ccc(Cl)cc3)cn(CC(=O)NCc3ccco3)c2n1 | 3.87
NC(=O)C(c1ccccc1)c1ccccn1 (centres unmarked) | 1.57
O=C1O[C@H]2C[C@@H]3C[C@H]2[C@H]1[C@@H]3C(=O)N(Cc1ccccc1)Cc1ccccc1 | 0.558
CC1CCCN(C(=O)C(Sc2ccccc2)c2ccccc2)C1 (centres unmarked) | -4
O=C(Nc1ccc(Cl)cn1)c1ccc2nsnc2c1 | -0.0108
COc1cc(C(=O)Nc2nnc(S(=O)(=O)N3CCCCCC3)s2)cc(OC)c1OC | 3.3
Cc1cccc(CN(CC(C)O)CC(C)O)c1 (centres unmarked) | 1.62
Cc1ccc(-n2nc(C)c3cc(C(=O)O)sc32)cc1 | -3.34
CN1C(=O)/C(=C\c2cc(Br)ccc2O)N=C1SCC(=O)NCc1ccco1 | 1.03
O=C(Nc1cccc([N+](=O)[O-])c1)c1cccc(C(=O)Nc2cccc([N+](=O)[O-])c2)c1 | -10.1

Compound | % Inhibition @ 10 uM [%]
CCOC(=O)c1sc(N2C(=O)c3oc4ccccc4c(=O)c3C2c2ccccc2F)nc1C (centres unmarked) | -2.92
CCC1CCC(NCCCn2ccnc2)CC1 (centres unmarked) | -7.18
CN1C2CCC1CC(N(CCc1ccccc1)C(=O)c1ccc(-c3ccccc3)cc1)C2 (centres unmarked) | 0.0035
O=C(NCc1ccc(F)cc1)c1noc2c1COc1ccccc1-2 | 69.7
Cn1c(=O)c(S(=O)(=O)C(C)(C)C)c(O)c2ccccc21 | -1.98
COc1ccccc1[C@@H](C)C[C@H](NC(=O)c1ccc(-c2ccccc2Cl)c(Cl)c1)C(=O)NCC#N | -4.82
CNC(=O)/C(C#N)=C/c1c(Oc2ccc(C(C)(C)C)cc2)nc2c(C)cccn2c1=O | -1.43
COc1ccc(-c2cc3c(=O)n(CC(=O)NCCc4ccc(Cl)cc4)ncn3n2)cc1 | 3.87
CCOC(=O)c1c(C)oc2c1c(/C=N/C1CCS(=O)(=O)C1)c(O)c1ccccc12 (centres unmarked) | 0.343
Cc1ccc2cc3cc(C(=O)NCCCN4CCCCCC4)oc3nc2c1 | 3.53
COc1cc(C2Nc3ccccc3C(=O)N2c2ccccc2)c(Br)cc1OCC(=O)O (centres unmarked) | -3.37
CCn1cc(NC(=O)NC2CCCCCC2)c(=O)c2ccc(C)nc21 | 2.29
COc1ccc(S(=O)(=O)NCc2ccc(C(=O)NCc3ccc(Cl)cc3)cc2)cc1 | 0.208
Brc1cccc(CSc2nc3ccccc3[nH]2)c1 | -4.18
COC(=O)c1ccccc1-c1ccc(/C=C2/C(=N)N3N=C(COc4ccccc4)SC3=NC2=O)o1 | -1.6
COc1cc(OC)nc(Oc2ccccc2CNc2ncccc2C)n1 | -2.34
Cn1c2ccc(Cl)cc2c2cc(C(=O)C(F)(F)F)ccc21 | -1.41
C/C(=N\OC(=O)c1ccccc1)c1cccs1 | 4.42
CCN(CC)S(=O)(=O)c1ccc(/N=C/c2c(C)nn(-c3ccc(C)cc3C)c2O)cc1 | 3.05
Cc1ccc(-c2ccc(/C=C3\C(=N)N4N=C(S(C)(=O)=O)SC4=NC3=O)o2)cc1Cl | -1.58
CC(C)(C)c1ccc(C(=O)Nc2nnc(Cc3ccccc3)s2)cc1 | 4.15

Compound | % Inhibition @ 10 uM [%]
Cc1ccccc1-n1nnnc1-c1ccccc1 | 1.13
O=C1Nc2ccccc2/C1=C\c1nc2ccccc2c(=O)n1-c1ccccc1 | 36.1
Cc1ccc(C)c(NS(=O)(=O)c2ccc(F)cc2)c1 | 2.46
COCCn1c(=N)c(C#N)cc2c(=O)n3cccc(C)c3nc21 | 3.6
O=C(CSC(c1ccccc1)c1ccccc1)N1CCCCC1 | 2.51
CC(C)Oc1ccc(C(=O)N(Cc2ccccc2F)C2CCS(=O)(=O)C2)cc1 (centres unmarked) | 3.62
COc1ccc(Cl)cc1C(=O)Nc1nnc(C)s1 | -8.2
COc1ccc(Cl)cc1NC(=O)c1ccc(Br)cc1 | 0.379
Cc1cccc(C(NC(N)=O)c2ccccc2)c1 (centres unmarked) | 5
O=C(NCc1ccc2c(c1)OCO2)c1cc(-c2ccccc2)[nH]n1 | -3.1
N#CC1=C(N)Oc2nc(O)nc(O)c2C1c1ccccc1 (centres unmarked) | 1.17
O=C(CCCO)NCCc1nc2ccccc2n1Cc1c(F)cccc1Cl | -3.08
Cc1nn(Cc2c(Cl)cccc2Cl)c(C)c1NC(=O)c1cccs1 | -4.43
Cc1nc(N2CCN(C)CC2)c2c(C)c(C(=O)O)sc2n1 | -4.74
CC(C)c1nc2sc3c(N4CCOCC4)ncnc3c2c2c1CCCC2 | 3.53
CCCS(=O)(=O)N1CCCC(C(=O)NC(C)c2ccc3c(c2)OCCO3)C1 (centres unmarked) | -1.79
Cc1ccc(CCNCc2c(C(=O)O)[nH]c3ccccc23)cc1 | -3.21
N#CC1=C(N)N(c2c(F)cccc2F)C2=C(C(=O)CCC2)C1c1ccccc1F (centres unmarked) | -5
O=C(CN1CC(c2ccccc2)CC1=O)NCCc1ccc(Cl)cc1 (centres unmarked) | 0.738
Cc1cc(N2CCC(C(=O)NCCCOC(C)C)CC2)n2nc(C)c(-c3ccc(Cl)cc3)c2n1 | 1.55
